Reference: the supplement of paper PMC3334620
Whole data set: some 33,000 sequences, median “E-score (-0.5 to 0.5)” near -0.017, cut for the highest 2% near 0.3. The list shows a part of the results.

Molecular target: T1, Sut1 (UniProt P53032)
T1 sequence: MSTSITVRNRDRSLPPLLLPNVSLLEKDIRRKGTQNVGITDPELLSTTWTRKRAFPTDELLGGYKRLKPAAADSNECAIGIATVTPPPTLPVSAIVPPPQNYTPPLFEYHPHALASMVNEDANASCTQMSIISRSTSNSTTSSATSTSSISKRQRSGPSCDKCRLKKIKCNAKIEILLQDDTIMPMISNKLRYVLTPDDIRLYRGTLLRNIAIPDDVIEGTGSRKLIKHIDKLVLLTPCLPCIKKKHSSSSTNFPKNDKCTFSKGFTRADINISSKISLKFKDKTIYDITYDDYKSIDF
Assay: PBM E-score (8-mer binding enrichment) (E-score (-0.5 to 0.5)); higher = stronger / more preferred TF binding; most listed sequences are background and not binding sites
Conditions: protein concentration: 200 nM; construct: GST-full length
Experimental: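 Universal 'all 10-mer' protein binding microarrays (Agilent AMADID 015681) probed with GST-tagged S. cerevisiae TFs (full-length or DBD) made by in vitro transcription/translation (PURExpress), about 100-200 nM. Bound TF was detected with fluorescent anti-GST. Each ungapped 8-mer (which stands for itself and its reverse complement) is scored by the PBM enrichment score (E-score), a modified Wilcoxon-Mann-Whitney statistic from -0.5 to +0.5, computed with the Universal PBM Analysis Suite. Scale: above 0.35 generally sequence-specific binding.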

In order of falling “PBM E-score” value:
1. ATAACTCC  0.365
2. GTGTCGGA  0.292
3. ATTTAAAA  0.285
4. AATTCGGT  0.255
5. GAATAATA  0.222
6. ATACACAT  0.209
7. CTATTTTC  0.205
8. TCATTCAA  0.199
9. ACCTTAAA  0.198
10. ATATTCCA  0.177
11. GTCTTCTA  0.174
12. CATATACA  0.17
13. GGCTAATA  0.17
14. CTAATTCC  0.165
15. ACGGAACC  0.163
16. GTACTGAA  0.159
17. GGAGTGAA  0.157
18. AAAAGTCA  0.15
19. ACTTAATC  0.145
20. CGAGGAAA  0.12
21. GATTCGCA  0.113
22. AATCAAGG  0.113
23. AGAAAGGG  0.108
24. GTCAAGAA  0.108
25. TCGTTGAA  0.106
26. AGGTTTTC  0.0964
27. CTTTACAC  0.0931
28. ACGATTGC  0.0877
29. AGGTGTTG  0.0734
30. CATTATCG  0.072
31. ACAGATAC  0.071
32. AGTCACGG  0.0701
33. CGCAGACA  0.0588
34. GACCCGAA  0.0553
35. GGGACCTA  0.0551
36. ATTGTGAC  0.0474
37. AGTTCTGG  0.0458
38. CAAAGAGA  0.0454
39. CGCTTTGC  0.0427
40. ATGGTCAA  0.0291
41. GTACGCAA  0.029
42. ATCGAGAA  0.0284
43. AGCATTTA  0.0213
44. AAGCAGTA  0.0176
45. GTCAGTCA  0.00573
46. CAATCATG  -0.00503
47. CTGTATAC  -0.00897
48. ACAAGGAT  -0.0117
49. CGAGATCC  -0.0129
50. GATTACCC  -0.0142
51. TAGAAGCA  -0.0194
52. AGACTTGC  -0.0197
53. CTGGCCGA  -0.022
54. ACTTGTGC  -0.024
55. CGCTAAAG  -0.0253
56. GACGGTTA  -0.0273
57. ATCGGTCA  -0.031
58. ACAATGGC  -0.0383
59. CAAAATCG  -0.0384
60. CACACGCC  -0.0411
61. ACCGAGCT  -0.044
62. CTAGCAGA  -0.0508
63. AGATATGC  -0.0536
64. CGGATCCC  -0.0536
65. CACCTAAA  -0.0555
66. CATAGTGA  -0.0558
67. ACCATGCA  -0.0585
68. CTAGGTAC  -0.0605
69. CATGGTCA  -0.065
70. CTACGTAC  -0.0782
71. AGAGTCTA  -0.0972
72. AGCCTAGG  -0.1
73. AAATCCTC  -0.108
74. CTGGTGAA  -0.109
75. CTTCGCCA  -0.115
76. CGCACACG  -0.126
77. AAGGTACA  -0.127
78. GTACAGCA  -0.136
79. CAATCATC  -0.136
80. CAAGCGCG  -0.142
81. CTGGCAGC  -0.153
82. AGGCGCAT  -0.153
83. ACGTCCCG  -0.157
84. ACCGCCAT  -0.158
85. ACAAGCTG  -0.17
86. ATGACGGC  -0.175
87. GATAGGCC  -0.176
88. AAGCCCAC  -0.185
89. GGTATCAC  -0.189
90. CCATCGCC  -0.197
91. GCGCTGAC  -0.206
92. AAGCGTCC  -0.207
93. GCAGTTTA  -0.207
94. CATCCCAG  -0.209
95. GTCACCTA  -0.211
96. ACGACCCG  -0.214
97. GGCATCAC  -0.214
98. ACGCGTCC  -0.228
99. CACGGTGC  -0.235
100. CCTAAGGC  -0.242
101. AGGAGGTG  -0.247
102. GCGAGACA  -0.25
103. CTGCACCC  -0.254
104. CCCAAGTA  -0.257
105. CCCGGCAC  -0.273
106. CAGCAGAG  -0.286
107. CTGAGGGA  -0.297
108. GGATGCCC  -0.313
109. GCGTAGCC  -0.337
110. GCTGGCCC  -0.376
